# From PubChem BioAssay AID686979 (National Center for Advancing Translational Sciences (NCATS), 2013)
# About 50,000 (12%) of roughly 420,000 compounds were called active. Inconclusive means that the source gave no clear call. Such entries were picked first, then a sample of the others. Calls follow the shape of the dose curve; as a rule, active = well fitted inhibition curve with a large enough effect; inconclusive = small, poorly fitted or top-dose-only effect; inactive = flat fitted curve, though single readings scatter. Potencies of inconclusive entries are left out as doubtful fits.
# Assay: qHTS for Inhibitors of human tyrosyl-DNA phosphodiesterase 1 (TDP1): qHTS in cells in presence of CPT; also: nearly all actives have a fitted effect of over 55% in size
# Conditions: chicken DT40 Tdp1-/-;hTDP1 cells + 20 nM CPT, ATP luminescence, 48 h; activity change, negative = growth inhibition: at 46.2 µM (top of the series) unless noted
# Outline: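 Chicken DT40 Tdp1-/- cells stably complemented with human TDP1 were seeded at 400 cells/well in medium containing 20 nM camptothecin, exposed to pin-transferred compounds, and grown at 37 °C for at least 48 hr. Viability was read as ATP luminescence.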
# % is scaled to controls: 0 for no effect and ±100 for the full control effect; potency is read from the fitted curve at half-maximal effect; tags tell the direction and shape of the fitted curve.
SMILES,Potency,"activity change, negative = growth inhibition"
CCCCCOc1ccc(C(O)C(CN2CCOCC2)c2ccccc2)cc1 (centres undefined),"inconclusive [inhibitor, single point]",
CCOC(=O)C1=C(C)N=C2c3ccccc3C(=O)C2C1c1ccc(C)cc1 (centres undefined),"inconclusive [inhibitor, single point]",
Cc1cc(NC(=O)c2cccc(S(=O)(=O)N3CCOCC3)c2)c2ccccc2n1,"inconclusive [inhibitor, single point]",
COc1ccc(OCc2ccc(-c3nc(C#N)c(NCc4ccc(F)cc4)o3)o2)cc1,"inconclusive [inhibitor, single point]",
COc1cccc(OCc2cc(C(=O)N3CCN(C(=O)c4ccco4)CC3)no2)c1,"inconclusive [inhibitor, single point]",
Cc1nc(N2CCCC2)ncc1C(=O)Nc1ccc(OC(F)(F)F)cc1,"inconclusive [inhibitor, partial curve]",
COc1ccccc1C(=O)Nc1ccc(Br)cc1C,inactive,
CCOC(=O)c1cc(-c2ccc(F)cc2)n(CCC(=O)Nc2nc3cc(C)c(C)cc3s2)c1C,"inconclusive [inhibitor, partial curve, poor fit]",
Cc1cccc(OCCNC(=S)NC(=O)c2cncc(Br)c2)c1,inactive,
COC(=O)CC1C(C)(C)C(O)C2CC3=C4CC(O)OC(c5ccoc5)[C@]4(C)CCC3[C@@]1(C)C2=O (some centres undefined),"inconclusive [inhibitor, single point]",
COc1ccc(OC)c(/C=C(\NC(=O)c2ccccc2)C(=O)N/N=C/c2ccc(C)s2)c1,"inconclusive [inhibitor, partial curve, poor fit]",
OCCN1CCN(c2ncnc3c2cnn3-c2cccc(Cl)c2)CC1,"inconclusive [inhibitor, single point]",
CCOC(=O)c1cccnc1SCc1cc(=O)n2ccccc2n1,inactive,
COc1ccc(C2C(C(=O)Nc3ccc(OC)c(OC)c3)c3ccccc3C(=O)N2C)cc1 (centres undefined),inactive,
Cc1cccc(Cc2nnc(CCC(=O)NCc3cnc4ccccn34)o2)c1,inactive,
O=C(Nc1cnns1)Oc1ccccc1,inactive,
COc1ccc(N2C(=O)CCC(C(=O)N3CCCCCC3)C2c2ccc(OC)c(OC)c2)cc1 (centres undefined),inactive,
O=C(CN1CCN(c2nc(-c3ccc(F)cc3)cs2)CC1)NCc1ccc2c(c1)OCO2,"inconclusive [inhibitor, single point]",
CCOC(=O)c1ccc(NC2c3ccccc3C(=O)N2c2cccnc2)cc1 (centres undefined),active: 11.6 µM,
COc1ccc(CNc2ncnc3ccccc23)cc1,"inconclusive [inhibitor, partial curve, poor fit]",
COc1cc(C2=NOC(C(=O)NCc3cccnc3)C2)cc(OC)c1OC (centres undefined),"inconclusive [inhibitor, partial curve, poor fit]",
Cc1cccc(N(C)S(=O)(=O)c2nnc(NC(=O)C(C)(C)C)s2)c1,"inconclusive [inhibitor, single point]",
Cc1ccc(NS(=O)(=O)c2ccc(OCC(=O)NCc3ccccn3)cc2)cc1,active: 3.66 µM,

SMILES,Potency,"activity change, negative = growth inhibition"
O=C(CN1CCOCCOCCN(CC(=O)Nc2ccccc2)CCOCC1)Nc1ccccc1,"inconclusive [inhibitor, partial curve]",
COc1ccc(N(CC(=O)Nc2ccccc2C(N)=O)S(=O)(=O)c2ccc(C)c([N+](=O)[O-])c2)cc1,"inconclusive [inhibitor, single point]",
COc1ccc(Cl)cc1NS(=O)(=O)c1cccc(C(=O)NCC2(N(C)C)CCCCC2)c1,"inconclusive [inhibitor, single point]",
CCc1c(C)n2nc(C)cc2[nH]c1=O,inactive,
Cc1ccc(Cl)cc1NC(=O)Cn1nnc2sc3c(c2c1=O)CCC(C(C)(C)C)C3 (centres undefined),active: 7.31 µM,
CCOc1ccc(C2N(c3ccc(Cl)cc3)C(=O)C3CCCN32)cc1OC (centres undefined),"inconclusive [inhibitor, single point]",
COc1ccc2nc(N=Nc3ccc(O)c4ccccc34)sc2c1,active: 1.3 µM,
CC(O)(COc1ccccc1)c1ccc2c(c1)CN(Cc1ccccn1)CCO2 (centres undefined),,inactive: -1.32% [at 9.04 µM]
Cc1c(NS(=O)(=O)c2cccs2)cccc1-c1nc2cccnc2s1,inactive,
Cn1c(SCC(=O)N(Cc2ccccc2)C(C)(C)C)nc2ccccc21,"inconclusive [inhibitor, single point]",
CC(C)C[C@H](NC(=O)c1nc[nH]c1C(=O)NCc1ccccc1)C(=O)OC(C)(C)C,"inconclusive [inhibitor, single point]",
COc1ccc(CCNc2ncnc3c2cnn3-c2ccc(F)cc2)cc1,"inconclusive [inhibitor, single point]",
COc1cccc2cc(C(=O)Nc3ccccc3C)/c(=N/O)oc12,active: 16.4 µM,
OC(c1ccccc1)(c1nc(-c2ccc3c(c2)OCO3)cs1)C(F)(F)F (centres undefined),"inconclusive [inhibitor, single point]",
CCCCNC(=O)N1CCC(CCC(=O)N(C)Cc2ccccc2)CC1,"inconclusive [inhibitor, single point]",
O=[N+]([O-])c1cccc(-c2nc(NCc3ccccc3)c3ccccc3n2)c1,"inconclusive [inhibitor, single point]",
CCOC(=O)/C(=C\c1ccccc1)C(=O)c1cc(C(C)=O)c(Nc2ccccc2)s1,active: 8.2 µM,
Cc1ccc(C)c(S(=O)(=O)N2CCCOC2CNC(=O)C(=O)NCc2ccccc2)c1 (centres undefined),"inconclusive [inhibitor, single point]",
Brc1ccc(CN2CCc3nc(Nc4ccccc4)ncc3C2)s1,"inconclusive [inhibitor, single point]",
O=C(CSc1nnc2ccccn12)NCCc1ccc(Cl)cc1,inactive,
CC1=C(C(=O)Nc2ccccc2F)C(c2ccsc2)C2=C(CC(c3ccccc3)CC2=O)N1 (centres undefined),active: 25.9 µM,
CCCC(=O)Nc1ccc(Cc2ccc(NC(=O)CCC)c(C(=O)O)c2)cc1C(=O)O,inactive,
c1csc(CNc2ncnc3ccc(-c4ccoc4)cc23)c1,"inconclusive [inhibitor, single point]",

SMILES,Potency,"activity change, negative = growth inhibition"
Oc1ccc(/C=N/Nc2cccc3cccnc23)c(O)c1,"inconclusive [inhibitor, partial curve]",
O=C(Nc1ccc(F)cc1)c1ccc2nsnc2c1,inactive,
Cc1ccc(Cc2c(-c3ccccc3)nc3c4ccccc4ccn23)cc1,active: 23.1 µM,
Cc1cccc(C)c1NC(=O)CN1CCNCC1,inactive,
CC(C)C(c1nnnn1C1CCCC1)N1CCc2ccccc21 (centres undefined),"inconclusive [inhibitor, partial curve]",
Cc1ccc(C)c(C(O)c2ncc(-c3ccc(F)cc3)[nH]2)c1 (centres undefined),active: 16.4 µM,
COc1ccc(N(Cc2cc3cc(OC)ccc3[nH]c2=O)C(=O)c2cccc(Cl)c2)cc1,"inconclusive [inhibitor, partial curve]",
O=C(CCC(=O)N1CCCCCC1)Nc1ccc([N+](=O)[O-])cc1,inactive,
CCOc1ccc(NC(=O)CN(c2ccc(OC)cc2)S(=O)(=O)c2cccs2)cc1,inactive,
CCc1ccc(NC(=O)COC(=O)/C=C/c2ccco2)cc1,"inconclusive [inhibitor, single point]",
COc1ccc(C(c2nnnn2Cc2cccs2)N2CCN(c3ccccc3F)CC2)cc1OC (centres undefined),"inconclusive [inhibitor, single point]",
COc1ccc(OC)c(CNC(=O)c2cc3c(=O)oc4ccc(C)cc4c3s2)c1,"inconclusive [inhibitor, single point]",
CC(C)(C)OC[C@H](NC(=O)c1[nH]cnc1C(=O)Nc1ccccc1F)C(=O)OC(C)(C)C,active: 20.6 µM,
O=C(Cn1c2ncccc2c(=O)n1-c1ccccc1)NCc1ccccc1,"inconclusive [inhibitor, single point]",
O=C(CS(=O)(=O)c1nc(-c2ccc(Cl)cc2)cn1-c1ccccc1)Nc1cccc(Cl)c1,active: 23.1 µM,
COCCn1c(CCC(=O)Nc2ccc(OC)c(OC)c2)nc2cccnc21,inactive,
O=C(NCc1ccccc1Cl)c1cc(-c2ccccc2)n[nH]1,"inconclusive [inhibitor, single point]",
COC(=O)c1ccc(Cn2c(C)c(C(=O)NCc3cccc([N+](=O)[O-])c3)sc2=O)o1,"inconclusive [inhibitor, single point]",
CCOC(=O)c1cc(CC)sc1NC(=O)CN1CCN(C(=O)c2ccco2)CC1,"inconclusive [inhibitor, single point]",
CCOC(=O)N(C)c1c(CC)nc2c(OCc3cc(Cl)cc(Cl)c3)cccn12,"inconclusive [inhibitor, single point]",
CCOC(=O)C1(Cc2cccc(F)c2)CCN(C(=O)C2CCC2)CC1,"inconclusive [inhibitor, partial curve, poor fit]",
O=C(Nc1ccc(S(=O)(=O)Nc2ccccn2)cc1)c1ccc(Cl)cc1Cl,inactive,
Cc1ccc(S(=O)(=O)N2C[C@H]3n4c(=O)ccc(=O)n4C[C@H](OC(=O)NCc4ccccc4F)[C@@]3(O)C2)cc1,"inconclusive [inhibitor, single point]",
